Results on 42 sequences are retold here after paper PMC7819943, “Rice protein-binding microarrays: a tool to detect cis-acting elements near promoter regions in rice”.

Some of the results follow.

This assay has as its target T1, OsWOX13 (Oryza sativa, UniProt Q5QMM3 1-267).
T1 sequence: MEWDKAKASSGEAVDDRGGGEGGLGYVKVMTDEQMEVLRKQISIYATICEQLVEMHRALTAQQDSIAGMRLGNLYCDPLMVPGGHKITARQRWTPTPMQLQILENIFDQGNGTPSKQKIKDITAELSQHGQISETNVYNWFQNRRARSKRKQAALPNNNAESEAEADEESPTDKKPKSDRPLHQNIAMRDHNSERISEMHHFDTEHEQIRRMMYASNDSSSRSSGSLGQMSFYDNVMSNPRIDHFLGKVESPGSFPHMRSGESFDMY
Kind of assay: protein-binding microarray (RPBM); PBS, 2% BSA, 51.3 ng/ul salmon testes DNA, 50 uM zinc acetate, 200 nM TF, 25 C, 1 h; high values mean tight binding. The note with it: protein: recombinant; tags: N-terminal polyhistidine and DsRed monomer fusion (pET32a); label: CyDye5-dUTP incorporated in the synthesized complementary strand; 3' TTTTT single-stranded linker to array surface; dsDNA, one strand shown. An outline of the steps:
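Binding signal is defined as the fluorescence intensity of each feature in arbitrary units, read on an Axon 4000B scanner. Transcription factors with N-terminal polyhistidine and DsRed fusions came from E. coli BL21-CodonPlus and were purified on Ni–NTA. They were incubated at 200 nM for 1 h at 25 °C on a custom Agilent array that had been made double-stranded with Cy5-dUTP, with 50 µM zinc acetate present, and the array was washed.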
Consider “GCACCCATGGAGATTGATTCGCGCAGAGACACCGTGAGGCCGGAGTCACCTAGTGCAG”, for which the binding signal was 3480 fluorescence intensity (a.u.).
On to “TTCAATCAAATTTTAAATTTTAGCGTGAACTAAACACACCCGGAGTCACCTAGTGCAG”, for which the binding signal was 24300 fluorescence intensity (a.u.).
Next, “AATGATATCAATCTGAACACCCATGTAAACGGGTGCGAATCGGAGTCACCTAGTGCAG”: 9940 fluorescence intensity (a.u.); “GGTTCAATTAGGCCATTTGTTGTAGTCCAGAATGAAGGGCCGGAGTCACCTAGTGCAG”: 13500 fluorescence intensity (a.u.).
Next, “GCAATAAACTGACCACTTTAATCAATTGTTCATCTCCTTTCGGAGTCACCTAGTGCAG”: 10500 fluorescence intensity (a.u.); “CATAATTAGCAAGGCGATCAAAACTGTTGTTTATGTAATACGGAGTCACCTAGTGCAG”: 8650 fluorescence intensity (a.u.).
On to “CCACAGCGTGATTTTGATCATTCTATACCACTGTTGCCTGCGGAGTCACCTAGTGCAG”, for which the binding signal is 4960 fluorescence intensity (a.u.).
Next, “AAATCAAAATCATTTGCGTCAAATCACATTGGCATGCTCACGGAGTCACCTAGTGCAG”: 3160 fluorescence intensity (a.u.); “TCAAACTTATCTAATTTTAACTAAGTATACATAACCCTAGCGGAGTCACCTAGTGCAG”: 6800 fluorescence intensity (a.u.).
As for “GATGTTAATGAATGTGATCGCAACCCATGGCCATGCCCTTCGGAGTCACCTAGTGCAG”, the binding signal was 4260 fluorescence intensity (a.u.).
Next, “TTGATTCTGGACCTGATTGCACTCTCTCAGTAGGAAGCAGCGGAGTCACCTAGTGCAG”: 9750 fluorescence intensity (a.u.).
Next, “TCGTGATTGATTGATCGATCGATCACAACCGAGCGTTTTCCGGAGTCACCTAGTGCAG”: 47000 fluorescence intensity (a.u.).
With “CTGATTTAATAATCTAGATTACAATAATATTATTAAGCTGCGGAGTCACCTAGTGCAG” the figure was 41500 fluorescence intensity (a.u.); with “TGACTCATTATATAATGATGATAATGATATGTGTGTGCTACGGAGTCACCTAGTGCAG”, 5620 fluorescence intensity (a.u.).
Take “CAAACAGTTAGCGGGTGATTTGATTTTGATCTATACTTCACGGAGTCACCTAGTGCAG”: the binding signal was 15100 fluorescence intensity (a.u.).
With “CTGATTATATAATTAGGGTAGTCTAATCACGCTCCCACATCGGAGTCACCTAGTGCAG”, the binding signal was 48600 fluorescence intensity (a.u.).
As to “CTAAATTAGCGTCAAACATCCGATATGACATGGACTAAAACGGAGTCACCTAGTGCAG”, the binding signal was 20200 fluorescence intensity (a.u.).
For the sequence “CAACTTGATTAGTAGTAGTACTAGTTTGATTTTGTCCTGGCGGAGTCACCTAGTGCAG”, the binding signal is 54200 fluorescence intensity (a.u.).
With “ATTTAGACTGCACAAATGCAGGGCCACATGTGTCACGCCCCGGAGTCACCTAGTGCAG” the figure was 6010 fluorescence intensity (a.u.); with “AGGATTGTTTCTGATGATTTGGGCCCGGAAAGACATAAGGCGGAGTCACCTAGTGCAG”, 7510 fluorescence intensity (a.u.).
With “GCGACCTGATGGATGATGATCGATCGAACCTTCCTGGGTACGGAGTCACCTAGTGCAG” the figure was 5270 fluorescence intensity (a.u.); with “GTGTTAATGACGGCAAAGTCTCTGTGTGTAACTTTGTATACGGAGTCACCTAGTGCAG”, 3420 fluorescence intensity (a.u.).
Next, “CTAATTTGATTGGGTATCTGATTCGATCTATACATCAAATCGGAGTCACCTAGTGCAG”: 45700 fluorescence intensity (a.u.).
With “CCCTTGATAGTTTGATATTGGTAGAGATATTATTTTCCCTCGGAGTCACCTAGTGCAG”, the binding signal was 17100 fluorescence intensity (a.u.).
Next, “TGCCCAATCACACTTGGCTCTAATTCTGCGACTCATCCTTCGGAGTCACCTAGTGCAG”: 7510 fluorescence intensity (a.u.); “ATACTTAATTAATGATACGATAATTGAATTTATTCTCTCCCGGAGTCACCTAGTGCAG”: 49900 fluorescence intensity (a.u.).
In the case of “CGACTAAATAGAGAGATCACCGCGTCCATCGGATTGATCGCGGAGTCACCTAGTGCAG”, the binding signal is 5290 fluorescence intensity (a.u.).
Take “TGAGTGATTTTATGCATTTGATACCATGGTGCCCATATATCGGAGTCACCTAGTGCAG”: the binding signal is 3370 fluorescence intensity (a.u.).
Next, “AAGTCGTTGATTAATTTGAGGGAATTATATATGGATCGGTCGGAGTCACCTAGTGCAG”: 32900 fluorescence intensity (a.u.).
With “ATCCTCAAATTACTTTCCATGTATAATAATTTGAAGATGTCGGAGTCACCTAGTGCAG” the figure was 5640 fluorescence intensity (a.u.); with “TATGATGACGACGATACCATCAAGCTTCATTAATTGCACTCGGAGTCACCTAGTGCAG”, 4960 fluorescence intensity (a.u.); with “CATCCAATTATGTCACAACAAATTATATACGAGAGTTTGACGGAGTCACCTAGTGCAG”, 13300 fluorescence intensity (a.u.).
For “TTTGATTGTTGTGCTTTTGCTTCTGTGGGTCAAAACCCTGCGGAGTCACCTAGTGCAG”, the binding signal is 9560 fluorescence intensity (a.u.).
Next, “CACGCCTTAATTAATTCTATGAATTGGTTGAACACAGTAACGGAGTCACCTAGTGCAG”: 17800 fluorescence intensity (a.u.); “ATAATTAACTACTCCCTCCGTTTCATAATATAAGAATTTCCGGAGTCACCTAGTGCAG”: 9330 fluorescence intensity (a.u.); “GTTTAATTATTCCCTGCAATTTTGTTAATTAATCAGACTTCGGAGTCACCTAGTGCAG”: 34300 fluorescence intensity (a.u.).
For the sequence “CTATGAATTGATGCTGTCGTTGAATGCTGGGTAAACAACGCGGAGTCACCTAGTGCAG”, the binding signal is 3920 fluorescence intensity (a.u.).
For “TATTAATTATTCTAAATTTAAATTGTGGTTAAGATGATTTCGGAGTCACCTAGTGCAG”, the binding signal was 28700 fluorescence intensity (a.u.).
With “GGTGATGGTGTTTTGATGAAGGATTGCTCGACCTAACGGTCGGAGTCACCTAGTGCAG” the figure was 9540 fluorescence intensity (a.u.).
With “CACAAACAACTTAAACTAGACTAACTAGACAAACAAGATGCGGAGTCACCTAGTGCAG” the figure was 4600 fluorescence intensity (a.u.); with “AGTGGCTTAATTTGGACCCAGCAATTTCAGCAAGCCGACTCGGAGTCACCTAGTGCAG”, 3270 fluorescence intensity (a.u.).
As to “TTAAATTTAACATGTCACGTTAAATTTAAGAAAATTTTGACGGAGTCACCTAGTGCAG”, the binding signal is 16700 fluorescence intensity (a.u.).
